From the supplement of paper PMC11417369 come the findings set out here.

± gives the standard deviation of the averaged measurements. The list shows a part of the results.

The test system of the test is PfAP2-EXP AP2 domain (GST-tagged). The experiment in a line: gcPBM binding intensity (ln(normalized median fluorescence intensity)); higher = stronger DNA binding. The gist of the method:
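The highest Masliner-normalised natural-log median intensity across replicate spots of either probe orientation is reported as binding intensity. GST-tagged P. falciparum DNA-binding domains expressed in E. coli were applied for 1 h to an Agilent 4 × 180k array of primer-extended double-stranded 36-bp intergenic genomic probes plus negative controls, and bound protein was detected with Alexa488 anti-GST antibody and scanned at 488 nm.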
Take “CAAAATAAAAAATTCACACACATATAAATATAAATA [CACACA_site7065]”: the “gcPBM binding intensity (ln)” value worked out at 8.54 ± 0.24.
Under “ATTTAATTTATTATGTGTACTTATTTAATTAAATTA [XGTACX_site3171]” stands 8.48 ± 0.21.
The same measure for “CATATAATTATTGAAAGTACATACAAATAAAAAGAT [XGTACX_site6535]”: 9.12 ± 0.39; for “ATATTTTTATTTAAATCACATCATTTTGTTTATTTG [CACACA_negctrl_site1056]”: 8.64 ± 0.43.
The same measure for “CTGATATATAGATGTAGTACATAAAAATGACGAATT [XGTACX_site5612]”: 8.81 ± 0.38.
Regarding “TTATATATTTATAAATGTACATATAATTTTTTTATA [XGTACX_site4696]”, the “gcPBM binding intensity (ln)” value came out at 8.3 ± 0.32.
The same measure for “TAAATATATTTATATTGTACATTTATGTTGATACCA [XGTACX_site228]”: 8.31 ± 0.41; for “ATATATATATGTATATGTACATATATATACACATAT [XGTACX_site140]”: 9.37 ± 0.12; for “ATATTTACCACTGTATGTACATATATAAAATATATC [XGTACX_site6373]”: 8.81 ± 0.18.
The same measure for “TATATATATAATATATGTACTGATATGCTATTTACT [XGTACX_site841]”: 8.915 ± 0.021; for “TTTTGTGAATTTTAGATTTTTTAATACAAGAATATT [CACACA_negctrl_site606]”: 8.14 ± 0.4; for “TAACACATATATTGTTGTACATTCAAACTGAAAAAT [XGTACX_site5565]”: 8.58 ± 0.41.
Under “TTTTTTTTATTAAAAAGTACTAAACAAATTATATAT [XGTACX_site121]” stands 8.45 ± 0.33; under “CCCATGTAATGAACATGTACATAATAATTTATAAAT [XGTACX_site8687]”, 9.23 ± 0.87; under “AGATGGAGAAAGTTATGTACACATATATAAATATGT [XGTACX_site6150]”, 8.47 ± 0.3.
Turning to “ATATATATATATATGTGTACATATGTATATATATCT [XGTACX_site2930]”, the “gcPBM binding intensity (ln)” value was found to be 10.1 ± 0.4.
The same measure for “TATATACATATGTGATGTACATTTTTTGTAATATAA [XGTACX_site6985]”: 8.52 ± 0.33.
The same measure for “ATGTCTACAGTTTTTGCACACATATAAATAAAAAAA [CACACA_site3600]”: 8.6 ± 0.45; for “ATTTTTTTTTTTTTTTTTTTTGAGAAGAACTTTTTC [CACACA_negctrl_site1019]”: 8.05 ± 0.46; for “AAACATCATAAATATACACACATATTTATATTTATA [CACACA_site6437]”: 8.35 ± 0.4.
Under “CCATAACTCATATGCACACATAAATATTACATATAT [CACACA_site3821]” stands 8.69 ± 0.18; under “TTTTAAAAAGAAAAAAATAACATACATATATATATA [CACACA_negctrl_site240]”, 9.68 ± 0.28.
With “TTTAATATTTTTTTTTGTACTTATTTGTAGAAATAT [XGTACX_site3046]”, the “gcPBM binding intensity (ln)” value turned out to be 8.6 ± 0.45.
With “CTATTTTTTGTATAAACATGCATATAGTAGATATGG [TGCATGCA_site670]”, the “gcPBM binding intensity (ln)” value is 8.61 ± 0.26.
The same measure for “AGGCTCATTTTTTTTAGTACATCAAAAAAAAAAAAA [TGCATGCA_negctrl_site591]”: 8.36 ± 0.18; for “AAATTCATATGAATTTGTACGGACATAAATATCTTC [XGTACX_site1838]”: 8.62 ± 0.33.
The same measure for “TGTATGTTTATTTGATGTACGGTCATACATATAAAT [XGTACX_site5176]”: 8.68 ± 0.38; for “ATTCATAATATTATAACACACGCTTATTACATAAAG [CACACA_site980]”: 8.64 ± 0.49.
Turning to “TTTTACATATACATGTGTACATAACAAAGAATGTTT [XGTACX_site2406]”, the “gcPBM binding intensity (ln)” value stood at 8.47 ± 0.34.
The same measure for “CGCATGTATTTTGTGTGTACTAATTATAATCAACTT [XGTACX_site4709]”: 8.97 ± 0.51; for “TTTTTTAATAAATGGTGTACATATTTTTTTTATACT [XGTACX_site8584]”: 8.44 ± 0.28.
Under “AGTGTATTAATTCTCACACACTAAGAAAAAAAAAAA [CACACA_site6007]” stands 8.3 ± 0.4.
The same measure for “TAATATTGTATTTATGTACACACATTTTTGGAATAT [CACACA_site8371]”: 8.55 ± 0.33.
As for “CAATCAAATAGACACACACACACCTAAACATAAAAG [CACACA_site7322]”, the “gcPBM binding intensity (ln)” value is 8.65 ± 0.58.
The same measure for “ATATTAAAATGAAAATATAAAAAAAAAAAAAAAAAA [CACACA_negctrl_site1559]”: 8.04 ± 0.39; for “TATATATATAAACACACACACACCAAAGCGTAGCGC [CACACA_site7903]”: 9.23 ± 0.057.
Under “TATTAATAAAAGCATTGTACAGTAATAAATAAATAA [XGTACX_site2924]” stands 8.81 ± 0.37.
The same measure for “AGCCATTAATTCTCTACACACCTTTATGTTATTTAG [CACACA_site3635]”: 8.83 ± 0.44; for “TTTCAAACAAAAAGACGTACACTGAAGTTATCCGTC [XGTACX_site8824]”: 8.48 ± 0.31.
On to “TTGTATTCATAACAACGTACATATTTTGTAACTAAA [XGTACX_site4029]”, for which the “gcPBM binding intensity (ln)” value was determined as 8.42 ± 0.3.
Under “AAGGAAATATAATATACACACATAAGTGTACTTCTA [CACACA_site6079]” stands 8.32 ± 0.3.
Under “ACTCATAAAAATAGATGTACTTTAATAATTTGATTT [XGTACX_site8763]” stands 8.21 ± 0.18.
Under “AAAAAAAAAAGACACACACACATATAAATATAAATA [CACACA_site6899]” stands 8.75 ± 0.38; under “TCAAACGGTTAAATATGTACATATATATATATATAT [XGTACX_site2339]”, 10 ± 0.45.
Take “ATATATATTTAAACTACACACGCATATCTTAGAAAT [CACACA_site8348]”: the “gcPBM binding intensity (ln)” value is 8.62 ± 0.53.
As for ACCCACTTTTGAGGTGTGCACAATAAATTGGACATT, the “gcPBM binding intensity (ln)” value was 8.67 ± 0.16.
The same measure for “AGGAAAAAAAAAATGACACACATATTTGAATTAAAA [CACACA_site1352]”: 8.34 ± 0.54.
Under “TAAGAGATATTTTATTAAATGTTTTATGAATCATGT [TGCATGCA_negctrl_site264]” stands 7.9 ± 0.47.
Under AGTGTGTGTAATAAAGTGCATTAAAAATGACACGTA stands 9.13 ± 0.12; under “GTACATACATAAAACACACACATATAGATTTATATA [CACACA_site6945]”, 8.6 ± 0.33; under “AACACTTCTTATTTATGTACTTAATTCCCAACGGAA [XGTACX_site4818]”, 8.87 ± 0.46.
In the case of “ATAAAATATAAAAATTGTACGATAATAATAGTAGGA [XGTACX_site8951]”, the “gcPBM binding intensity (ln)” value stood at 8.71 ± 0.26.
Under “TATCTCTTCATATTGTGTACATATTTTTATTTATTG [XGTACX_site4038]” stands 9.11 ± 0.42.
The same measure for “AATTACTACATAAATACATGCATAATTATATATATA [TGCATGCA_site783]”: 9.03 ± 0.14; for “AAATATATATATATATATATATATATATATATATAT [CACACA_negctrl_site677]”: 10.1 ± 0.36.
Regarding TTATAAAATTACTTGGTGCATTAGAATATTTCAATA, the “gcPBM binding intensity (ln)” value is 8.59 ± 0.13.
Under “TGATCAGATAGACACACACACAAAAAAAAAAAAAAA [CACACA_site7805]” stands 8.03 ± 0.61.
